± gives the standard deviation of the averaged measurements. Some of the results follow.
System: PfAP2-G AP2 domain (GST-tagged)
Assay: gcPBM binding intensity (ln(normalized median fluorescence intensity)); higher = stronger DNA binding
Outline: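 After 1 h on an Agilent 4 × 180k array of primer-extended double-stranded 36-bp intergenic genomic probes and negative controls, bound GST-tagged P. falciparum DNA-binding domains were detected with Alexa488 anti-GST antibody and scanned at 488 nm. The domains had been expressed in E. coli, and binding took place in 1× PBS with 1% milk, 0.2 mg/ml BSA, 0.5% salmon testes DNA and 0.03% Triton X-100. Binding intensity is the highest Masliner-normalised natural-log median intensity across replicate spots of either probe orientation.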

Sequence | gcPBM binding intensity (ln)
ATTGTCCTAAATACTACAAAGTAGATCTTTAATATT [CACACA_negctrl_site1795] | 10.8 ± 0.6
AAAATTATATATTTTAGTACATAAAATATTGACATA [XGTACX_site2581] | 11.1 ± 0.88
ATGTAATGTTATGTTATGTTTTTTTTTTTTTTGTGT [CACACA_negctrl_site1264] | 9.745 ± 0.064
TTTTAAACAGGACACACACACATATATATATATATA [CACACA_site4664] | 10.4 ± 0.37
GATATATTTTATATATGTACATACAGTGGTAAATAT [XGTACX_site1324] | 11.2 ± 0.54
TTTATACAAAAAAACAAAATCAAACAAAAAAAAAAA [CACACA_negctrl_site252] | 9.65 ± 0.13
GGAATATGTATATTTTGTACGTATACATTTTTTGGG [XGTACX_site7681] | 11.2 ± 0.58
GTTATTGTAAAAAGATTACACACGTTCTATATACTT [CACACA_site2473] | 9.95 ± 0.18
TTTTCTACATCTTGTTGTACGAAAAATAAAAAAAAT [XGTACX_site4620] | 11.1 ± 0.91
AGTACGTAAATTATAATACACACTATAGGATATTCT [CACACA_site2559] | 10.8 ± 0.49
TATTAGCATGTTATTACACACAATATAAGATATATA [CACACA_site6775] | 9.91 ± 0.099
AATATATATTTATAAACACACACCAAAATTTGTGCT [CACACA_site3091] | 9.855 ± 0.064
ACATTTTGTGTTTTAGCACACAATTTTTCAGAATAT [CACACA_site2961] | 10.1 ± 0.18
ATATTATAATATTTATGTACATATATATAATATATA [XGTACX_site1633] | 11.2 ± 0.76
TACATTTGTATAAATAGTACGCGAAAACAAAAAAAA [XGTACX_site6246] | 11.2 ± 0.61
ATATATGTGCCCATATATATATATATAAATATATGT [GTGCAC_negctrl_site226] | 10.6 ± 0.56
TATATATGTATCATTACACACATGTATACTTATTTG [CACACA_site4138] | 10.3 ± 0.16
TGTATAAATATATATACACACATATTTATATATATA [CACACA_site755] | 9.825 ± 0.035
TATGCTATATATTTAGTGCATATATATAACTTTTAT [GTGCAC_site9902] | 9.79 ± 0.15
TAAAAAAAAACAGAAACACACATTATTCATATATAT [CACACA_site2049] | 9.81 ± 0.18
AAAATATTTATGTATGCATGTTGTAATATTTCTTTA [TGCATGCA_site296] | 9.84 ± 0.057
ATTTCCCCTTTTTATTGTACATTTTTATTTGTTACT [XGTACX_site4845] | 10.9 ± 0.53
GCTCTAATTAATATTTGTACACACATATTTAACCTA [XGTACX_site6808] | 11.3 ± 0.79

Sequence | gcPBM binding intensity (ln)
AATCTAGGTATTTATACACACTAAAATAATATACGA [CACACA_site4515] | 10.05 ± 0.042
AAAAAAAAAAGAAACACACACATATAGATTTATAAC [CACACA_site6927] | 9.78 ± 0.11
ATTTAAATAATATTCACACACAAAATTAAATTTTAA [CACACA_site6246] | 9.99 ± 0.13
AAAAAATTAACCGTAACACACACACCGATATATATA [CACACA_site9312] | 10.1 ± 0.27
TGATCTTTACACATATTATATATATATAAAAAAAAA [XGTACX_negctrl_site360] | 9.99 ± 0.26
TTTTTTTTTTTTTTTTGTACATAATTCCATATTTTT [XGTACX_site1789] | 10.7 ± 0.96
ATATTTAATTTGTATGGTACAGTACGATCTTTCTTT [XGTACX_site5533] | 11.2 ± 0.69
ATAAGAATATATAGAGTGCGTTGAAGAATTATAATA | 9.82 ± 0.12
TTATAACATATAAACATGTTTCATCTTACGTATTTT [GTGCAC_negctrl_site694] | 10 ± 0.11
TGTTATATCAATAATATATAATAATACCCTTCTTTT [CACACA_negctrl_site1682] | 9.82 ± 0.014
ATCGCAAGATTAATATAAGGAGAAACGTTTATATAT [GTGCAC_negctrl_site267] | 9.68 ± 0.15
CCCTCAACGAATTTGAGTACACATTTTAAATGATAT [XGTACX_site7763] | 11.7 ± 1.1
ACATATATATATATATATATATATATATTTATTTAT [CACACA_negctrl_site734] | 10.2 ± 0.39
TACACCATGATACATACACACAGACATATACACATT [CACACA_site6601] | 10.3 ± 0.23
AATTAAATGATTTATACATGCATATAAATATAAATA [TGCATGCA_site579] | 9.69 ± 0.12
TCTGTAAATATGTATACACACATATATGATCAATAT [CACACA_site3234] | 10.11 ± 0.085
AGTAGAAAAGGAACATGTACGAATTAAAAAAATAAT [XGTACX_site2347] | 11 ± 0.33
AATAATATGTTATCTCTTACACATATAAAAAATAAA [XGTACX_negctrl_site370] | 9.825 ± 0.078
TAAAAGAAAGCACATACACACACAAAAAAAAAAAAG [CACACA_site8159] | 10.2 ± 0.28
AAAAAACATTTGATCTGTACGCATAGACAATTATAT [XGTACX_site960] | 11.5 ± 1
ACAGGATTGGTTCAAACACACATATTATAGGACTAT [CACACA_site6455] | 10.26 ± 0.049
AAAAAAAAATCATATTGTACGTAAAAAAAAAAAAAA [XGTACX_site476] | 11.4 ± 1
AATATGTTTTGTTAGGTTGGTGTTGGTAGAATGTTT [CACACA_negctrl_site1563] | 9.945 ± 0.035

Sequence | gcPBM binding intensity (ln)
TTATACTGTACAAAAAGAATAGCAGTATAACAAAAA [CACACA_negctrl_site755] | 10.7 ± 0.51
CAATATATTTGATTTACACACTTACAATGTATTTAA [CACACA_site5632] | 10.2 ± 0.15
ATAATCCTTAGACACACACACACACGAATAAATAAA [CACACA_site6364] | 10.3 ± 0.27
CGAAAAAATAAAAAAAAAATAAAATAAAATAAATAA [TGCATGCA_negctrl_site278] | 9.495 ± 0.007
ATATATATATATATGTGTACATATTTTTTTGAAGTG [XGTACX_site248] | 11.4 ± 0.93
TAATATAAATGAAAGGTGCTTTTGCTTTCTTTTTTT | 9.44 ± 0.3
TTTTCTATATAACAACGTACATTTATTATATTATAA [XGTACX_site6148] | 11 ± 0.6
AATATAATATACATATGTACATATATATATATATAT [XGTACX_site8218] | 11 ± 0.56
TATAACACACAATGATGTACATTACATTATTTTTTA [XGTACX_site2076] | 11 ± 0.52
ATACATATAATAATATGTACATATAATTATATATAT [XGTACX_site913] | 11.2 ± 0.67
AAAAAAAAAAAAAATACACACACACCGATATATATA [CACACA_site8142] | 10.03 ± 0.049
TCTGGATTGGATTACAAGAAAATAAAATATAAAATA [CACACA_negctrl_site122] | 9.92 ± 0.2
TATACAAATATATATGCACACACATATATGTATATG [CACACA_site9007] | 9.97 ± 0.042
TAATTAAAGTTATCTACACACCTTTATAGATATATA [CACACA_site7778] | 9.73 ± 0.17
TATAAAACAAATATATGTACATATCATAGTATAATA [XGTACX_site2965] | 11.1 ± 0.62
TAATATATTTTTAACATGCACTGTATTTTAATATAT | 9.89 ± 0.18
TTTGGTTATTTGACCTGTACACATTTAATTATTTTT [XGTACX_site5170] | 11.4 ± 0.84
CAAAGGAAATGGTGTACACAATTTTTCCTTTTTCGT [CACACA_site4800] | 11.8 ± 1.2
AATAATATATTATATGCATGTGTATAATTTGATATA [TGCATGCA_site1058] | 10.1 ± 0.23
AAATACTTATTCGTGGTGCAACAATTTTAAAAATTA | 10.5 ± 0.33
ATTAAAATAATACGTACACACATGTATAATACATAT [CACACA_site1005] | 11.5 ± 0.91
ATTATGAATTTAAGACGTACAAAAAATTTTTATTCA [XGTACX_site5682] | 11.4 ± 0.88
ACAAGTATTCCTTTTGCACACCTTTCTGCACCTTAT [CACACA_site3873] | 10.4 ± 0.19

Sequence | gcPBM binding intensity (ln)
TAACAACGATACAATTGTACAAATTATATATATATA [XGTACX_site4687] | 10.6 ± 0.31
CAAAAAAAGTTATACACACACACACGGATATAAATA [CACACA_site6619] | 10.2 ± 0.11
TATTACATAATATATGTACACACGCAAATACTTATA [CACACA_site7994] | 11.4 ± 0.85
AGCAAGACGGGGTGCACACAAACTAATATGCCGAAT [CACACA_site159] | 10.8 ± 0.57
AAAATACAGAAACACACACACACACCCATATATATA [CACACA_site3559] | 9.99 ± 0.16
TTTTATAAAACATGTAGTACATGAAAAAAAAAATTT [XGTACX_site1626] | 11.6 ± 1
GAAAAGTATAAAAAACGTACAAGTTTTATTTTCACA [XGTACX_site4604] | 11.4 ± 1.1
CCCCTATAAATAGGGTGTACTAATAAATATTTTTAA [XGTACX_site1244] | 11.6 ± 0.91
ACGGGCGACACATAAGTGCGCAAAAAAAAAAAAATA [GTGCAC_site9688] | 10.4 ± 0.46
TAAAATAAAAAGTTTACACACATATATAACTTTAAT [CACACA_site6456] | 9.81 ± 0.13
CATATTAAGATGTGTACACATTTTTATTTTTTTTTT [CACACA_site4425] | 11.6 ± 0.93
GTATTCATTCCTTGAGTGCAATTGCAATAAATAAAA | 10.4 ± 0.41
AATATATAAATATATATAAATAAATATATATATAAA [CACACA_negctrl_site49] | 9.34 ± 0.15
AAATGGAAATTAATATGTACATATTTATAAGTATGA [XGTACX_site1774] | 11.2 ± 0.67
TCCTATCATTTATATTTTACTACATAATATTGATAA [GTGCAC_negctrl_site286] | 9.96 ± 0.12
AAATGACGAAATAAAATCATAAATTAAAATAAATAA [CACACA_negctrl_site655] | 9.62 ± 0.12
ATAGCATTTCACAAATGTACATAAAAAAATAAAAAT [XGTACX_site402] | 11.3 ± 0.81
TAAAACAAAATGGTAACACACACATATATATATATA [CACACA_site8590] | 10.1 ± 0.27
TTTTACAAATATTTCTGTACACATTCTCATATAATT [XGTACX_site1974] | 11.5 ± 0.88
TTTTTTAATTAATTACCTTTGAATGTGTATTAGGAC [GTGCAC_negctrl_site651] | 10.2 ± 0.22

— the supplement of paper PMC11417369
